# Assay results from the supplement of paper PMC8728848.
# The list shows a part of the results.
# What was measured:
# Experiment in all cases: glycan array binding signal (z-score within array); higher = stronger binding
# Details in all cases: glycan notation: IUPAC condensed, linker removed
# Glc(b1-4)Glc = target: Glc(b1-4)Glc
# In short: (§1)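 The binding signal is a Z-score computed within each array and averaged over linkers. Arrays of the same protein sequence at different concentrations or buffers were also averaged together. Data originate from 3228 arrays in the Consortium for Functional Glycomics database, kept only where the protein sequence was available.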
# Glc(b1-6)Glc = target: Glc(b1-6)Glc
# In short: as §1
# GlcA(b1-3)Gal = target: GlcA(b1-3)Gal
# In short: as §1
# GlcA(b1-3)GlcNAc = target: GlcA(b1-3)GlcNAc
# In short: as §1
# GlcA(b1-6)Gal = target: GlcA(b1-6)Gal
# In short: as §1
# [1] = target: GlcA3S(b1-3)Gal(b1-4)GlcNAc(b1-2)Man
# In short: as §1
# [2] = target: GlcA3S(b1-3)Gal(b1-4)GlcNAc(b1-3)Gal(b1-4)Glc
# In short: as §1
# [3] = target: GlcNAc(a1-3)Gal(b1-4)GlcNAc
# In short: as §1
# [4] = target: GlcNAc(a1-4)Gal(b1-3)GlcNAc
# In short: as §1
# [5] = target: GlcNAc(a1-4)Gal(b1-4)GalNAc
# In short: as §1
# [6] = target: GlcNAc(a1-4)Gal(b1-4)GlcNAc
# In short: as §1
# [7] = target: GlcNAc(a1-4)Gal(b1-4)GlcNAc(b1-3)Gal(b1-4)Glc
# In short: as §1
# [8] = target: GlcNAc(a1-4)Gal(b1-4)GlcNAc(b1-3)Gal(b1-4)GlcNAc
# In short: as §1
# [9] = target: GlcNAc(a1-4)Gal(b1-4)GlcNAc(b1-3)Gal(b1-4)GlcNAc(b1-3)Gal(b1-4)GlcNAc
# In short: as §1
# [10] = target: GlcNAc(a1-4)Gal(b1-4)GlcNAc(b1-3)Gal(b1-4)[Fuc(a1-3)]GlcNAc(b1-3)Gal(b1-4)[Fuc(a1-3)]GlcNAc
# In short: as §1
# [11] = target: GlcNAc(a1-6)Gal(b1-4)GlcNAc
# In short: as §1
# [12] = target: GlcNAc(b1-2)Gal(b1-3)GalNAc
# In short: as §1
# [13] = target: GlcNAc(b1-2)Man(a1-3)[GlcNAc(b1-2)Man(a1-6)]Man(b1-4)GlcNAc(b1-4)GlcNAc
# In short: as §1
# [14] = target: GlcNAc(b1-2)Man(a1-3)[GlcNAc(b1-2)Man(a1-6)]Man(b1-4)GlcNAc(b1-4)[Fuc(a1-6)]GlcNAc
# In short: as §1
# [15] = target: GlcNAc(b1-2)Man(a1-3)[GlcNAc(b1-4)][GlcNAc(b1-2)Man(a1-6)]Man(b1-4)GlcNAc(b1-4)GlcNAc
# In short: as §1
# [16] = target: GlcNAc(b1-2)Man(a1-3)[GlcNAc(b1-4)][GlcNAc(b1-2)Man(a1-6)]Man(b1-4)GlcNAc(b1-4)[Fuc(a1-6)]GlcNAc
# In short: as §1
# [17] = target: GlcNAc(b1-2)[GlcNAc(b1-4)]Man(a1-3)[GlcNAc(b1-2)Man(a1-6)]Man(b1-4)GlcNAc(b1-4)GlcNAc
# In short: as §1
# [18] = target: GlcNAc(b1-2)[GlcNAc(b1-4)]Man(a1-3)[GlcNAc(b1-4)][GlcNAc(b1-2)Man(a1-6)]Man(b1-4)GlcNAc(b1-4)GlcNAc
# In short: as §1
# [19] = target: GlcNAc(b1-2)[GlcNAc(b1-4)]Man(a1-3)[GlcNAc(b1-4)][GlcNAc(b1-2)[GlcNAc(b1-6)]Man(a1-6)]Man(b1-4)GlcNAc(b1-4)GlcNAc
# In short: as §1
# [20] = target: GlcNAc(b1-2)[GlcNAc(b1-4)]Man(a1-3)[GlcNAc(b1-4)][GlcNAc(b1-2)[GlcNAc(b1-6)]Man(a1-6)]Man(b1-4)GlcNAc(b1-4)[Fuc(a1-6)]GlcNAc
# In short: as §1
# [21] = target: GlcNAc(b1-2)[GlcNAc(b1-6)]Man(a1-6)[GlcNAc(b1-2)Man(a1-3)]Man(b1-4)GlcNAc(b1-4)GlcNAc
# In short: as §1
# [22] = target: GlcNAc(b1-2)[GlcNAc(b1-6)]Man(a1-6)[GlcNAc(b1-2)Man(a1-3)]Man(b1-4)GlcNAc(b1-4)[Fuc(a1-6)]GlcNAc
# In short: as §1
# [23] = target: GlcNAc(b1-2)[GlcNAc(b1-6)]Man(a1-6)[GlcNAc(b1-4)][GlcNAc(b1-2)Man(a1-3)]Man(b1-4)GlcNAc(b1-4)GlcNAc
# In short: as §1
# GlcNAc(b1-3)Fuc = target: GlcNAc(b1-3)Fuc
# In short: as §1
# GlcNAc(b1-3)Gal = target: GlcNAc(b1-3)Gal
# In short: as §1
# [24] = target: GlcNAc(b1-3)Gal(b1-3)GalNAc
# In short: as §1
# GlcNAc(b1-3)Gal(b1-4)Glc = target: GlcNAc(b1-3)Gal(b1-4)Glc
# In short: as §1
# [25] = target: GlcNAc(b1-3)Gal(b1-4)GlcNAc
# In short: as §1
# [26] = target: GlcNAc(b1-3)Gal(b1-4)GlcNAc(b1-2)Man(a1-3)[GlcNAc(b1-3)Gal(b1-4)GlcNAc(b1-2)Man(a1-6)]Man(b1-4)GlcNAc(b1-4)GlcNAc
# In short: as §1
# [27] = target: GlcNAc(b1-3)Gal(b1-4)GlcNAc(b1-2)Man(a1-3)[GlcNAc(b1-3)Gal(b1-4)GlcNAc(b1-2)Man(a1-6)]Man(b1-4)GlcNAc(b1-4)[Fuc(a1-6)]GlcNAc
# In short: as §1
# [28] = target: GlcNAc(b1-3)Gal(b1-4)GlcNAc(b1-2)[GlcNAc(b1-3)Gal(b1-4)GlcNAc(b1-6)]Man(a1-6)[GlcNAc(b1-3)Gal(b1-4)GlcNAc(b1-2)Man(a1-3)]Man(b1-4)GlcNAc(b1-4)GlcNAc
# In short: as §1
# [29] = target: GlcNAc(b1-3)Gal(b1-4)GlcNAc(b1-3)Gal(b1-4)GlcNAc
# In short: as §1
# [30] = target: GlcNAc(b1-3)Gal(b1-4)GlcNAc(b1-3)Gal(b1-4)GlcNAc(b1-2)Man(a1-3)[GlcNAc(b1-3)Gal(b1-4)GlcNAc(b1-3)Gal(b1-4)GlcNAc(b1-2)Man(a1-6)]Man(b1-4)GlcNAc(b1-4)GlcNAc
# In short: as §1
# [31] = target: GlcNAc(b1-3)Gal(b1-4)GlcNAc(b1-3)Gal(b1-4)GlcNAc(b1-2)Man(a1-3)[GlcNAc(b1-3)Gal(b1-4)GlcNAc(b1-3)Gal(b1-4)GlcNAc(b1-2)Man(a1-6)]Man(b1-4)GlcNAc(b1-4)[Fuc(a1-6)]GlcNAc
# In short: as §1
# [32] = target: GlcNAc(b1-3)Gal(b1-4)GlcNAc(b1-3)Gal(b1-4)GlcNAc(b1-2)[GlcNAc(b1-3)Gal(b1-4)GlcNAc(b1-3)Gal(b1-4)GlcNAc(b1-6)]Man(a1-6)[GlcNAc(b1-3)Gal(b1-4)GlcNAc(b1-3)Gal(b1-4)GlcNAc(b1-2)Man(a1-3)]Man(b1-4)GlcNAc(b1-4)[Fuc(a1-6)]GlcNAc
# In short: as §1
# [33] = target: GlcNAc(b1-3)Gal(b1-4)GlcNAc(b1-3)Gal(b1-4)GlcNAc(b1-3)Gal(b1-4)GlcNAc(b1-2)Man(a1-3)[GlcNAc(b1-3)Gal(b1-4)GlcNAc(b1-3)Gal(b1-4)GlcNAc(b1-3)Gal(b1-4)GlcNAc(b1-2)Man(a1-6)]Man(b1-4)GlcNAc(b1-4)GlcNAc
# In short: as §1
# [34] = target: GlcNAc(b1-3)Gal(b1-4)GlcNAc(b1-3)Gal(b1-4)GlcNAc(b1-3)Gal(b1-4)GlcNAc(b1-2)Man(a1-3)[GlcNAc(b1-3)Gal(b1-4)GlcNAc(b1-3)Gal(b1-4)GlcNAc(b1-3)Gal(b1-4)GlcNAc(b1-2)Man(a1-6)]Man(b1-4)GlcNAc(b1-4)[Fuc(a1-6)]GlcNAc
# In short: as §1
# [35] = target: GlcNAc(b1-3)Gal(b1-4)GlcNAc(b1-3)Gal(b1-4)GlcNAc(b1-3)Gal(b1-4)GlcNAc(b1-2)[GlcNAc(b1-3)Gal(b1-4)GlcNAc(b1-3)Gal(b1-4)GlcNAc(b1-3)Gal(b1-4)GlcNAc(b1-6)]Man(a1-6)[GlcNAc(b1-3)Gal(b1-4)GlcNAc(b1-3)Gal(b1-4)GlcNAc(b1-3)Gal(b1-4)GlcNAc(b1-2)Man(a1-3)]Man(b1-4)GlcNAc(b1-4)[Fuc(a1-6)]GlcNAc
# In short: as §1
# [36] = target: GlcNAc(b1-3)Gal(b1-4)GlcNAc(b1-3)Gal(b1-4)GlcNAc(b1-3)Gal(b1-4)GlcNAc(b1-3)Gal(b1-4)GlcNAc(b1-2)Man(a1-3)[GlcNAc(b1-3)Gal(b1-4)GlcNAc(b1-3)Gal(b1-4)GlcNAc(b1-3)Gal(b1-4)GlcNAc(b1-3)Gal(b1-4)GlcNAc(b1-2)Man(a1-6)]Man(b1-4)GlcNAc(b1-4)GlcNAc
# In short: as §1
# [37] = target: GlcNAc(b1-3)Gal(b1-4)GlcNAc(b1-3)Gal(b1-4)GlcNAc(b1-3)Gal(b1-4)GlcNAc(b1-3)Gal(b1-4)GlcNAc(b1-2)Man(a1-3)[GlcNAc(b1-3)Gal(b1-4)GlcNAc(b1-3)Gal(b1-4)GlcNAc(b1-3)Gal(b1-4)GlcNAc(b1-3)Gal(b1-4)GlcNAc(b1-2)Man(a1-6)]Man(b1-4)GlcNAc(b1-4)[Fuc(a1-6)]GlcNAc
# In short: as §1
binder,measurement,setting,value
MpAFP NterminalRI GFP (Marinomonas primoryensis) (protein) MSDNQFPFATLGNAIGFITKLDGSVTVQSIDGQERVLKLGDPIFFGETVLTGGSGSVTIAFVDGTDVVIGGDSIVEMTDEIYNTGDNEDLVADSSSEIDALQNAILAGDDPTLIQDAPAAGNTLADQQRVDVSIERNDNSAQAGFGVDTQSSLPTYGYDTDNGNGGQATEREYSAPSLSRTLNQSPLLEHHHHHH,glycan array binding signal (z-score),Glc(b1-4)Glc,0.784
same,glycan array binding signal (z-score),Glc(b1-6)Glc,-0.091
same,glycan array binding signal (z-score),GlcA(b1-3)Gal,-0.484
same,glycan array binding signal (z-score),GlcA(b1-3)GlcNAc,-0.343
same,glycan array binding signal (z-score),GlcA(b1-6)Gal,-0.407
same,glycan array binding signal (z-score),[1],-0.43
same,glycan array binding signal (z-score),[2],-0.393
same,glycan array binding signal (z-score),[3],0.258
same,glycan array binding signal (z-score),[4],-0.357
same,glycan array binding signal (z-score),[5],-0.43
same,glycan array binding signal (z-score),[6],-0.415
same,glycan array binding signal (z-score),[7],-0.514
same,glycan array binding signal (z-score),[8],-0.444
same,glycan array binding signal (z-score),[9],-0.518
same,glycan array binding signal (z-score),[10],0.331
same,glycan array binding signal (z-score),[11],-0.479
same,glycan array binding signal (z-score),[12],-0.532
same,glycan array binding signal (z-score),[13],0.47
same,glycan array binding signal (z-score),[14],-0.192
same,glycan array binding signal (z-score),[15],-0.304
same,glycan array binding signal (z-score),[16],-0.383
same,glycan array binding signal (z-score),[17],-0.39
same,glycan array binding signal (z-score),[18],-0.399
same,glycan array binding signal (z-score),[19],-0.418
same,glycan array binding signal (z-score),[20],-0.371
same,glycan array binding signal (z-score),[21],-0.196
same,glycan array binding signal (z-score),[22],-0.005
same,glycan array binding signal (z-score),[23],-0.459
same,glycan array binding signal (z-score),GlcNAc(b1-3)Fuc,-0.339
same,glycan array binding signal (z-score),GlcNAc(b1-3)Gal,-0.489
same,glycan array binding signal (z-score),[24],-0.475
same,glycan array binding signal (z-score),GlcNAc(b1-3)Gal(b1-4)Glc,-0.41
same,glycan array binding signal (z-score),[25],0.317
same,glycan array binding signal (z-score),[26],1.46
same,glycan array binding signal (z-score),[27],1.26
same,glycan array binding signal (z-score),[28],6.32
same,glycan array binding signal (z-score),[29],-0.558
same,glycan array binding signal (z-score),[30],0.803
same,glycan array binding signal (z-score),[31],1.56
same,glycan array binding signal (z-score),[32],1.26
same,glycan array binding signal (z-score),[33],6.83
same,glycan array binding signal (z-score),[34],2.05
same,glycan array binding signal (z-score),[35],2.6
same,glycan array binding signal (z-score),[36],0.255
same,glycan array binding signal (z-score),[37],-0.015
